Laboratory results as given in patent publication US20200055919A1 (ACCELERON PHARMA, published 2020).

Tests used:
Experiment in all cases: cell-based or functional assay
[1] = biological target: T1, GDF11 (UniProt O95390 299-407)
T1 sequence (looked up): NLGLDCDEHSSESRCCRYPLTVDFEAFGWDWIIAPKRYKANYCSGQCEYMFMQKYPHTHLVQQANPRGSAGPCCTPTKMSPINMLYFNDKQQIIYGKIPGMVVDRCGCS

[2] = biological target: T2, BMP9 (UniProt Q9UK05 320-429)
T2 sequence (looked up): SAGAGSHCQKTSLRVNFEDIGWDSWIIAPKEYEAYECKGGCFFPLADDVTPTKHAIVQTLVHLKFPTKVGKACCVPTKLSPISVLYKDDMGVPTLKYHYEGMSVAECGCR

[3] = biological target: T3, activin A (UniProt P08476 311-426)
T3 sequence (looked up): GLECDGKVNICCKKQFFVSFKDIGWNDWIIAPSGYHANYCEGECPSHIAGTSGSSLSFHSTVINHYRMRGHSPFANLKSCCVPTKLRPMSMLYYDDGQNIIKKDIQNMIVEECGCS

Row | Binder | IC50 of inhibition of ligand signaling, A204 CAGA12 luciferase reporter assay [1] | IC50 of inhibition of ligand signaling, A204 CAGA12 luciferase reporter assay [2] | IC50 of inhibition of ligand signaling, A204 CAGA12 luciferase reporter assay [3]
1 | ActRIIB-G1Fc (unmodified ActRIIB-Fc homodimer) (Fc fusion) GRGEAETRECIYYNANWELERTNQSGLERCEGEQDKRLHCYASWRNSSGTIELVKKGCWLDDFNCYDRQECVATEENPQVYFCCCEGNFCNERFTHLPEAGGPEVTYEPPPTAPTG[human IgG1 Fc and a few adjoining residues not printed] | 0.009 µg/mL | 0.031 µg/mL | 0.008 µg/mL
2 | ActRIIB(K74R)-Fc homodimer (Fc fusion) GRGEAETRECIYYNANWELERTNQSGLERCEGEQDKRLHCYASWRNSSGTIELVRKGCWLDDFNCYDRQECVATEENPQVYFCCCEGNFCNERFTHLPEAGGPEVTYEPPPTAPTG[human IgG1 Fc and a few adjoining residues not printed] | 0.045 µg/mL | 0.165 µg/mL | 
3 | ActRIIB(K55R)-Fc homodimer (Fc fusion) GRGEAETRECIYYNANWELERTNQSGLERCEGEQDRRLHCYASWRNSSGTIELVKKGCWLDDFNCYDRQECVATEENPQVYFCCCEGNFCNERFTHLPEAGGPEVTYEPPPTAPTG[human IgG1 Fc and a few adjoining residues not printed] | 0.318 µg/mL | 0.777 µg/mL | 0.206 µg/mL
4 | ActRIIB(F82W)-Fc homodimer (Fc fusion) GRGEAETRECIYYNANWELERTNQSGLERCEGEQDKRLHCYASWRNSSGTIELVKKGCWLDDWNCYDRQECVATEENPQVYFCCCEGNFCNERFTHLPEAGGPEVTYEPPPTAPTG[human IgG1 Fc and a few adjoining residues not printed] | 0.276 µg/mL |  | 
5 | ActRIIB(E50P)-Fc homodimer (Fc fusion) GRGEAETRECIYYNANWELERTNQSGLERCPGEQDKRLHCYASWRNSSGTIELVKKGCWLDDFNCYDRQECVATEENPQVYFCCCEGNFCNERFTHLPEAGGPEVTYEPPPTAPTG[human IgG1 Fc and a few adjoining residues not printed] | 0.638 µg/mL | ~3 µg/mL | 0.756 µg/mL
6 | ActRIIB(Y60P)-Fc homodimer (Fc fusion) GRGEAETRECIYYNANWELERTNQSGLERCEGEQDKRLHCPASWRNSSGTIELVKKGCWLDDFNCYDRQECVATEENPQVYFCCCEGNFCNERFTHLPEAGGPEVTYEPPPTAPTG[human IgG1 Fc and a few adjoining residues not printed] | 0.544 µg/mL |  | 
7 | ActRIIB(R40A)-Fc homodimer (Fc fusion) GRGEAETRECIYYNANWELEATNQSGLERCEGEQDKRLHCYASWRNSSGTIELVKKGCWLDDFNCYDRQECVATEENPQVYFCCCEGNFCNERFTHLPEAGGPEVTYEPPPTAPTG[human IgG1 Fc and a few adjoining residues not printed] | 0.591 µg/mL | 1.21 µg/mL | 
8 | ActRIIB(E52A)-Fc homodimer (Fc fusion) GRGEAETRECIYYNANWELERTNQSGLERCEGAQDKRLHCYASWRNSSGTIELVKKGCWLDDFNCYDRQECVATEENPQVYFCCCEGNFCNERFTHLPEAGGPEVTYEPPPTAPTG[human IgG1 Fc and a few adjoining residues not printed] | 0.071 µg/mL | 0.359 µg/mL | 0.198 µg/mL
9 | ActRIIB(F82W/N83A)-Fc homodimer (Fc fusion) GRGEAETRECIYYNANWELERTNQSGLERCEGEQDKRLHCYASWRNSSGTIELVKKGCWLDDWACYDRQECVATEENPQVYFCCCEGNFCNERFTHLPEAGGPEVTYEPPPTAPTG[human IgG1 Fc and a few adjoining residues not printed] | 0.389 µg/mL | ~40 µg/mL | 
10 | ActRIIB(E50K)-Fc homodimer (Fc fusion) GRGEAETRECIYYNANWELERTNQSGLERCKGEQDKRLHCYASWRNSSGTIELVKKGCWLDDFNCYDRQECVATEENPQVYFCCCEGNFCNERFTHLPEAGGPEVTYEPPPTAPTG[human IgG1 Fc and a few adjoining residues not printed] | 0.18 µg/mL | 0.721 µg/mL | 0.132 µg/mL
11 | ActRIIB(Y60K)-Fc homodimer (Fc fusion) GRGEAETRECIYYNANWELERTNQSGLERCEGEQDKRLHCKASWRNSSGTIELVKKGCWLDDFNCYDRQECVATEENPQVYFCCCEGNFCNERFTHLPEAGGPEVTYEPPPTAPTG[human IgG1 Fc and a few adjoining residues not printed] | 0.414 µg/mL |  | 
12 | ActRIIB(E52K)-Fc homodimer (Fc fusion) GRGEAETRECIYYNANWELERTNQSGLERCEGKQDKRLHCYASWRNSSGTIELVKKGCWLDDFNCYDRQECVATEENPQVYFCCCEGNFCNERFTHLPEAGGPEVTYEPPPTAPTG[human IgG1 Fc and a few adjoining residues not printed] | 0.296 µg/mL | ~10 µg/mL | 0.762 µg/mL
13 | ActRIIB(K55D)-Fc homodimer (Fc fusion) GRGEAETRECIYYNANWELERTNQSGLERCEGEQDDRLHCYASWRNSSGTIELVKKGCWLDDFNCYDRQECVATEENPQVYFCCCEGNFCNERFTHLPEAGGPEVTYEPPPTAPTG[human IgG1 Fc and a few adjoining residues not printed] | 0.365 µg/mL | 5.5 µg/mL | 0.396 µg/mL
14 | ActRIIB(L79R)-Fc homodimer (Fc fusion) GRGEAETRECIYYNANWELERTNQSGLERCEGEQDKRLHCYASWRNSSGTIELVKKGCWRDDFNCYDRQECVATEENPQVYFCCCEGNFCNERFTHLPEAGGPEVTYEPPPTAPTG[human IgG1 Fc and a few adjoining residues not printed] | 0.234 µg/mL |  | 
15 | ActRIIB(F82K)-G1Fc homodimer (Fc fusion) GRGEAETRECIYYNANWELERTNQSGLERCEGEQDKRLHCYASWRNSSGTIELVKKGCWLDDKNCYDRQECVATEENPQVYFCCCEGNFCNERFTHLPEAGGPEVTYEPPPTAPTG[human IgG1 Fc and a few adjoining residues not printed] | 0.015 µg/mL | ~5 µg/mL | 0.01 µg/mL
16 | ActRIIB(F82I)-G1Fc homodimer (Fc fusion) GRGEAETRECIYYNANWELERTNQSGLERCEGEQDKRLHCYASWRNSSGTIELVKKGCWLDDINCYDRQECVATEENPQVYFCCCEGNFCNERFTHLPEAGGPEVTYEPPPTAPTG[human IgG1 Fc and a few adjoining residues not printed] | 0.009 µg/mL | 0.277 µg/mL | 0.011 µg/mL
17 | ActRIIB(K55A)-G1Fc homodimer (Fc fusion) GRGEAETRECIYYNANWELERTNQSGLERCEGEQDARLHCYASWRNSSGTIELVKKGCWLDDFNCYDRQECVATEENPQVYFCCCEGNFCNERFTHLPEAGGPEVTYEPPPTAPTG[human IgG1 Fc and a few adjoining residues not printed] | 0.011 µg/mL | 0.122 µg/mL | 0.015 µg/mL
18 | ActRIIB(K55E)-G1Fc homodimer (Fc fusion) GRGEAETRECIYYNANWELERTNQSGLERCEGEQDERLHCYASWRNSSGTIELVKKGCWLDDFNCYDRQECVATEENPQVYFCCCEGNFCNERFTHLPEAGGPEVTYEPPPTAPTG[human IgG1 Fc and a few adjoining residues not printed] | 0.014 µg/mL | 0.29 µg/mL | 0.019 µg/mL
19 | ActRIIB(L79K)-Fc homodimer (Fc fusion) GRGEAETRECIYYNANWELERTNQSGLERCEGEQDKRLHCYASWRNSSGTIELVKKGCWKDDFNCYDRQECVATEENPQVYFCCCEGNFCNERFTHLPEAGGPEVTYEPPPTAPTG[human IgG1 Fc and a few adjoining residues not printed] | 0.477 µg/mL |  | 
